Assay results: PubChem BioAssay AID2675 (National Center for Advancing Translational Sciences (NCATS), 2010)
Where “and” joins values, the source holds several entries; their conditions need not be identical. Equal values may be shown once. About 100 (0.036%) of roughly 280,000 compounds were called active. This list was built around the results that the source calls inconclusive (neither active nor inactive); the mix of calls is not that of the screen. The call rests on the fitted dose curve; in most records, active means well fitted inhibition curve with a large enough effect in the signal ratio, with a control signal flat (not every such curve was filed as active); inconclusive means small, poorly fitted or top-dose-only effect, or effect the other way, or a change in a side signal; inactive means no such curve, though single readings can be large or run the other way; the % refers to the signal ratio. Potencies of inconclusive entries are doubtful fits and often do not repeat. “Side channel” marks fits to a control or component signal instead of the main read-out.

Biological target: Muscleblind-like protein 1 (Homo sapiens) (UniProt Q9NR56)
Experiment: qHTS Assay for Inhibitors of MBNL1-poly(CUG) RNA binding
Conditions: TR-FRET MBNL1-His/biotin-(CUG)12 binding, 665/545 ratio; series mostly up to 57.5 µM
Outline: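 TR-FRET between His-tagged MBNL1 and biotin-(CUG)12 RNA, detected with Tb anti-His antibody (0.055 ng/ul) and streptavidin-XL665 (5 nM), 60 min at room temperature. Compounds titrated 92 nM to 58 uM; 665/545 nm ratio normalized to buffer and complex controls.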
Potency means the concentration at half of the fitted maximal effect; tags describe the fitted curve by direction and shape or compound fluorescence and quenching.

UniProt Q9NR56, sequence (Q9NR56 whole entry, looked up): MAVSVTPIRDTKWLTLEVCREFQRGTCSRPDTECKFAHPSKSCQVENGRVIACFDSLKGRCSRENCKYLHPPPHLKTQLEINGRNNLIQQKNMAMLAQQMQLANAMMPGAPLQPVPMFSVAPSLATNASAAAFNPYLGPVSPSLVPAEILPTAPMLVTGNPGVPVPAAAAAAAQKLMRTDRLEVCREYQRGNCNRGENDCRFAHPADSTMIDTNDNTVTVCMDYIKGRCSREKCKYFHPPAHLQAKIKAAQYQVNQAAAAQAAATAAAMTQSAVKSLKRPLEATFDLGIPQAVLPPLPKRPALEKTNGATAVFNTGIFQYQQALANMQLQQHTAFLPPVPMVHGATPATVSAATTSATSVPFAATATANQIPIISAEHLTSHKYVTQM

Compound | Potency
O=C(CF)NC(NC(=S)Nc1cccc([N+](=O)[O-])c1)C(Cl)(Cl)Cl (configuration not stated) | inconclusive: 10 µM [quencher, side channel, partial curve]
CN1CCc2cc3c(c4c2C1Cc1ccccc1-4)OCO3 (configuration not stated) | inconclusive: 7.08 µM [quencher, side channel, partial curve]
C=C(C)Cn1c(-c2cccs2)n[nH]c1=S | inconclusive: 0.112 µM [quencher, side channel, full curve, poor fit]
CN1C(=O)N(C)C(=O)C2(Cc3c(ccc4ccccc34)N(C)C2)C1=O | inconclusive: 31.6 µM [quencher, side channel, single point]
Cc1c(OC(=O)N(C)C)ccc2c1O/C(=C\c1ccco1)C2=O | inconclusive: 11.2 µM [quencher, side channel, partial curve]
Cn1c(O)c(N=Nc2ccc(S(=O)(=O)N3CCOCC3)cc2)c(=O)n(C)c1=O | inconclusive: 1.58 µM [quencher, side channel, full curve, poor fit]
CCN(CC)c1ccc(N=Cc2c(O)n(-c3ccccc3C)c(=O)[nH]c2=O)cc1 | inconclusive: 25.1 µM [quencher, side channel, single point]
O=[N+]([O-])c1ccc(NCCO)c2ncccc12 | inconclusive: 10 µM [quencher, side channel, partial curve]
CN1CCN(CC(=O)Nc2ccc(Cl)cc2C(=O)c2ccccc2)CC1 | inactive
CCC(CO)NC(=O)C1C=C2c3cccc4[nH]cc(c34)CC2N(C)C1 (configuration not stated) | inconclusive: 35.5 µM [quencher, side channel, single point]
CCn1nc(-c2cccs2)nc2c(=O)n(C)c(=O)nc1-2 | inconclusive: 1 µM [quencher, full curve]
c1ccc2c(CNC3CCCCC3)c[nH]c2c1 | inactive
CCc1nc(N2CCNCC2)c(C#N)c2c1CSC(C)(C)C2 | inactive
CN(C)C(=O)Oc1ccc(OC(=O)c2ccccc2)cc1 | inconclusive: 35.5 µM [quencher, side channel, single point]
Cc1ccc(C)c(OCC(=O)N2CCN(Cc3ccc4c(c3)OCO4)CC2)c1 | inconclusive: 12.6 µM [quencher, side channel, partial curve]
O=C1/C(=C/c2cc([N+](=O)[O-])ccc2Cl)N2CCC1CC2 | inactive
COCCCNC(=O)c1c(NC(=O)c2ccccc2Cl)n(Cc2ccccc2)c2nc3ccccc3nc12 | inconclusive: 6.31 µM [fluorescent, single point]
Cn1cnnc1Sc1cc(N2CCNCC2)ccc1[N+](=O)[O-] | inconclusive: 12.6 µM [quencher, side channel, partial curve]
O=c1c(O)c(-c2ccc(O)c(O)c2)oc2cc(O)cc(O)c12 | inconclusive: 20 µM [quencher, side channel, single point] and inconclusive: 28.2 µM [quencher, side channel, single point]

Compound | Potency
O=C(N/N=C/c1c(O)n(-c2ccccc2)c(=O)[nH]c1=O)c1ccncc1 | inconclusive: 2.51 µM [quencher, side channel, partial curve]
CCCCCn1c(N)c(C(=O)NCCN2CCOCC2)c2nc3ccccc3nc21 | inconclusive: 31.6 µM [quencher, side channel, single point]
C=CCn1c(O)c(C(CC)=NCCC2=CCCCC2)c(=O)[nH]c1=O | inactive
O=C(NC(c1ccc(Cl)cc1)P(=O)(Oc1ccccc1)Oc1ccccc1)OCc1ccccc1 (configuration not stated) | inconclusive: 0.708 µM [quencher, side channel, single point]
CC(=O)c1ccc(Oc2ccc(C(=O)c3ccc(C)c(C)c3)cc2[N+](=O)[O-])cc1 | inconclusive: 0.708 µM [fluorescent, side channel, full curve, poor fit]
COc1ccc(OC(=O)Nc2ccc([N+](=O)[O-])cc2OC)cc1 | inconclusive: 14.1 µM [quencher, side channel, partial curve]
CNC(=O)Oc1cccc(-c2cn3cc(OC(=O)NC)ccc3n2)c1 | inconclusive: 12.6 µM [quencher, side channel, partial curve]
Nc1c(C(=O)OCC2CCCO2)c2nc3ccccc3nc2n1Cc1cccs1 (configuration not stated) | inconclusive: 10 µM [quencher, side channel, partial curve]
COc1ccc(OC)c(-n2c(O)c(/C=C3\C(C)=Nc4ccccc43)c(=O)[nH]c2=O)c1 | inactive
CC(C)C(=O)Nc1ccc([N+](=O)[O-])c(C(F)(F)F)c1 | inactive and inconclusive: 25.1 µM [quencher, side channel, partial curve]
O=C(CNC(=O)OCc1ccccc1)Nc1ccc(Br)cc1C(=O)c1ccccc1Cl | inactive
Cc1nn(Cc2ccccc2)c(C)c1C(=O)OCC(=O)NC1CCS(=O)(=O)C1 (configuration not stated) | inconclusive: 0.447 µM [quencher, side channel, partial curve]
CCCCN1C(=O)/C(=C/c2ccc(N3CCCCCC3)cc2)C(=O)NC1=S | inconclusive: 0.1 µM [fluorescent, side channel, full curve]
CN(C)C(=O)Oc1cccc([N+](C)(C)C)c1 | inconclusive: 100 µM [inhibitor, partial curve, poor fit]
Cc1cc(O)c2c(c1)C(=O)c1cc(O)cc(O)c1C2=O | inconclusive: 15.8 µM [quencher, side channel, partial curve]
CN(C)CCc1nn[nH]n1 | inconclusive: 39.8 µM [quencher, side channel, single point]
CSc1ccc(CN2CCN(Cc3ccccc3Cl)CC2)cc1 | inactive
CCCCC(=O)N/N=C/c1c(O)n(Cc2ccco2)c(=O)[nH]c1=O | inconclusive: 0.0251 µM [fluorescent, side channel, full curve]
